Laboratory results taken from US9890133B2 (priority 2011, dated 2018).

How the values were obtained:
Coxsackie B3 = experiment: microbe, parasite or virus in culture; details: Enterovirus B, B3, read-out: Coxsackie B3 EC50
Coxsackie B1 = experiment: organism not typed; details: read-out: Coxsackie B1 EC50
Rhinovirus = experiment: microbe, parasite or virus in culture; format: cell-based; details: Enterovirus
[1] = HRV14, read-out: Rhino HRV14 EC50
[2] = HRV21, read-out: Rhino HRV21 EC50
[3] = HRV71, read-out: Rhino HRV71 EC50

SMILES	EC50 (Coxsackie B3) [µg/mL]	EC50 (Coxsackie B1) [µg/mL]	EC50 (Rhinovirus; [1]) [µg/mL]	EC50 (Rhinovirus; [2]) [µg/mL]	EC50 (Rhinovirus; [3]) [µg/mL]
CC(C)c1ccc2c(c1)OC1(O)c3cccc(N)c3C(=O)C21NC(=O)CCl (stereo not drawn) [Example 194, N-(1-Amino-4b-hydroxy-7-isopropyl-10-oxo-9b,10-dihydro-4bH-benzo[d]indeno[1,2-b]furan-9b-yl)-2-chloroacetamide]	< 0.01	< 0.01	< 0.01	–	–
CC(C)c1ccc2c(c1)OC1(O)c3cccc(N)c3C(=O)C21NC(=O)c1ccccn1 (stereo not drawn) [Example 197, N-(1-Amino-4b-hydroxy-7-isopropyl-10-oxo-9b,10-dihydro-4bH-indeno[1,2-b]benzofuran-9b-yl)picolinamide]	< 0.01	< 0.01	< 0.01	–	–
CC(C)c1ccc2c(c1)OC1(O)c3cccc(N)c3C(=O)C21NC(=O)c1cccnc1 (stereo not drawn) [Example 198, N-(1-Amino-4b-hydroxy-7-isopropyl-10-oxo-9b,10-dihydro-4bH-indeno[1,2-b]benzofuran-9b-yl)nicotinamide]	< 0.01	< 0.01	< 0.01	< 1	< 1
CC(C)c1ccc2c(c1)OC1(O)c3cccc(N)c3C(=O)C21NC(=O)c1ccncc1 (stereo not drawn) [Example 199, N-(1-Amino-4b-hydroxy-7-isopropyl-10-oxo-9b,10-dihydro-4bH-indeno[1,2-b]benzofuran-9b-yl)isonicotinamide]	< 0.01	< 0.01	< 0.01	< 1	< 1
CC(C)c1ccc2c(c1)OC1(O)c3cccc(N)c3C(=O)C21NC(=O)c1cnccn1 (stereo not drawn) [Example 200, N-(1-Amino-4b-hydroxy-7-isopropyl-10-oxo-9b,10-dihydro-4bH-indeno[1,2-b]benzofuran-9b-yl) pyrazine-2-carboxamide]	< 0.01	< 0.01	< 0.01	< 1	< 1
CC(C)c1ccc2c(c1)OC1(O)c3cccc(N)c3C(=O)C21NC(=O)c1ccco1 (stereo not drawn) [Example 201, N-(1-Amino-4b-hydroxy-7-isopropyl-10-oxo-9b,10-dihydro-4bH-indeno[1,2-b]benzofuran-9b-yl)furane-2-carboxamide]	< 0.01	< 0.01	< 0.01	< 1	< 1
CC(C)c1ccc2c(c1)OC1(O)c3cccc(N)c3C(=O)C21NC(=O)c1cccc2cccnc12 (stereo not drawn) [Example 202, N-(1-Amino-4b-hydroxy-7-isopropyl-10-oxo-9b,10-dihydro-4bH-indeno[1,2-b]benzofuran-9b-yl)quinoline-8-carboxamide]	< 0.01	< 0.01	< 0.01	–	–
CC(C)c1ccc2c(c1)OC1(O)c3cccc(N)c3C(=O)C21NC(=O)c1ccc2ncccc2c1 (stereo not drawn) [Example 203]	< 0.01	< 0.01	< 0.01	< 1	< 1
CC(C)c1ccc2c(c1)OC1(O)c3cccc(N)c3C(=O)C21NC(=O)c1cc2ccccc2o1 (stereo not drawn) [Example 204, N-(1-Amino-4b-hydroxy-7-isopropyl-10-oxo-9b,10-dihydro-4bH-benzo[d]indeno[1,2-b]furan-9b-yl)benzofurane-2-carboxamide]	< 0.01	< 0.01	< 0.01	–	< 1
Cc1c(C(=O)NC23C(=O)c4c(N)cccc4C2(O)Oc2cc(C(C)C)ccc23)oc2ccccc12 (stereo not drawn) [Example 205]	< 0.01	< 0.01	< 0.01	–	–
Cc1ncsc1C(=O)NC12C(=O)c3c(N)cccc3C1(O)Oc1cc(C(C)C)ccc12 (stereo not drawn) [Example 206, N-(1-Amino-4b-hydroxy-7-isopropyl-10-oxo-9b,10-dihydro-4bH-indeno[1,2-b]benzofuran-9b-yl)-4-methylthiazole-5-carboxamide]	< 0.01	< 0.01	< 0.01	< 1	< 1
CC(C)c1ccc2c(c1)OC1(O)c3cccc(N)c3C(=O)C21NC(=O)[C@@H]1CSC(=O)N1 (stereo partly drawn) [Example 207, (4R)—N-(1-amino-4b-hydroxy-7-isopropyl-10-oxo-9b,10-dihydro-4bH-indeno[1,2-b]benzofuran-9b-yl)-2-oxothiazolidine-4-carboxamide]	< 0.01	< 0.01	< 0.01	< 1	–
CC(C)c1ccc2c(c1)OC1(O)c3ccccc3C(=O)C21NC(=O)c1cc2ccccc2[nH]1 (stereo not drawn) [Example 208, N-(4b-hydroxy-7-isopropyl-10-oxo-9b,10-dihydro-4bH-indeno[1,2-b]benzofuran-9b-yl)-1H-indole-2-carboxamide]	< 0.01	< 0.01	< 0.01	–	–
CC(C)c1ccc2c(c1)OC1(O)c3ccccc3C(=O)C21NC(=O)c1c[nH]c2ccccc12 (stereo not drawn) [Example 209, N-(4b-Hydroxy-7-isopropyl-10-oxo-9b,10-dihydro-4bH-indeno[1,2-b]benzofuran-9b-yl)-1H-indole-3-carboxamide]	< 0.01	< 0.01	< 0.01	–	–
CC(C)c1ccc2c(c1)OC1(O)c3ccccc3C(=O)C21NC(=O)c1cnn(-c2ccccc2)c1C(F)(F)F (stereo not drawn) [Example 211]	< 0.01	< 0.01	0.039 (≈ 0.0731 µM)	–	–
CC(C)c1ccc2c(c1)OC1(O)c3cccc(N)c3C(=O)C21NC(=O)c1n[nH]c2ccccc12 (stereo not drawn) [Example 212, N-(1-Amino-4b-hydroxy-7-isopropyl-10-oxo-9b,10-dihydro-4bH-benzo[d]indeno[1,2-b]furan-9b-yl)-1H-indazole-3-carboxamide]	< 0.01	< 0.01	< 0.01	–	< 1
CC(C)c1ccc2c(c1)OC1(O)c3cccc(N)c3C(=O)C21NC(=O)Cn1cnnn1 (stereo not drawn) [Example 213, N-(1-Amino-4b-hydroxy-7-isopropyl-10-oxo-9b,10-dihydro-4bH-benzo[d]indeno[1,2-b]furan-9b-yl)-2-(1H-tetrazol-1-yl)acetamide]	< 0.01	< 0.01	< 0.01	< 1	< 1
CC(C)c1ccc2c(c1)OC1(O)c3cccc(N)c3C(=O)C21NC(=O)c1cnc2ccccc2c1 (stereo not drawn) [Example 214, N-(1-Amino-4b-hydroxy-7-isopropyl-10-oxo-9b,10-dihydro-4bH-indeno[1,2-b]benzofuran-9b-yl)quinoline-3-carboxamide]	< 0.01	< 0.01	< 0.01	< 1	< 1
CC(C)c1ccc2c(c1)OC1(O)c3cccc(N)c3C(=O)C21NC(=O)c1ccnc2ccccc12 (stereo not drawn) [Example 215, N-(1-Amino-4b-hydroxy-7-isopropyl-10-oxo-9b,10-dihydro-4bH-indeno[1,2-b]benzofuran-9b-yl)quinoline-4-carboxamide]	< 0.01	< 0.01	< 0.01	< 1	–
COc1sccc1C(=O)NC12C(=O)c3c(N)cccc3C1(O)Oc1cc(C(C)C)ccc12 (stereo not drawn) [Example 217, N-(1-Amino-4b-hydroxy-7-isopropyl-10-oxo-9b,10-dihydro-4bH-indeno[1,2-b]benzofuran-9b-yl)-2-methoxythiophene-3-carboxamide]	< 0.01	< 0.01	< 0.01	–	–
CC(C)c1ccc2c(c1)OC1(O)c3ccccc3C(=O)C21NC(=O)c1ccccn1 (stereo not drawn) [Example 218, N-(4b-Hydroxy-7-isopropyl-10-oxo-9b,10-dihydro-4bH-indeno[1,2-b]benzofuran-9b-yl)picolinamide]	< 0.01	< 0.01	< 0.01	–	–
CC(C)c1ccc2c(c1)OC1(O)c3ccccc3C(=O)C21NC(=O)c1ccncn1 (stereo not drawn) [Example 219, N-(4b-Hydroxy-7-isopropyl-10-oxo-9b,10-dihydro-4bH-indeno[1,2-b]benzofuran-9b-yl)pyrimidine-4-carboxamide]	< 0.01	< 0.01	< 0.01	–	–
CC(C)c1ccc2c(c1)OC1(O)c3ccccc3C(=O)C21NC(=O)c1ccc2[nH]nnc2c1 (stereo not drawn) [Example 221, N-(4b-Hydroxy-7-isopropyl-10-oxo-9b,10-dihydro-4bH-benzo[d]indeno[1,2-b]furan-9b-yl)-1H-benzo[d][1,2,3]triazole-5-carboxamide]	< 0.01	< 0.01	< 0.01	–	–
CC(C)c1ccc2c(c1)OC1(O)c3ccccc3C(=O)C21NC(=O)c1nc[nH]n1 (stereo not drawn) [Example 222, N-(4b-Hydroxy-7-isopropyl-10-oxo-9b,10-dihydro-4bH-benzo[d]indeno[1,2-b]furan-9b-yl)-1H-1,2,4-triazole-3-carboxamide]	< 0.01	< 0.01	0.037 (≈ 0.0948 µM)	–	–
Cc1onc(-c2c(F)cccc2Cl)c1C(=O)NC12C(=O)c3c(N)cccc3C1(O)Oc1cc(C(C)C)ccc12 (stereo not drawn) [Example 228, N-(1-Amino-4b-hydroxy-7-isopropyl-10-oxo-9b,10-dihydro-4bH-indeno[1,2-b]benzofuran-9b-yl)-3-(2-chloro-6-fluorophenyl)-5-methylisooxazole-4-carboxamide]	< 0.01	< 0.01	0.029 (≈ 0.0529 µM)	–	–
CC(C)c1ccc2c(c1)OC1(O)c3ccccc3C(=O)C21NC(=O)c1cc(-c2ccccc2)n[nH]1 (stereo not drawn) [Example 229, N-(4b-hydroxy-7-isopropyl-10-oxo-9b,10-dihydro-4bH-indeno[1,2-b]benzofuran-9b-yl)-3-phenyl-1H-pyrazole-5-carboxamide]	< 0.01	< 0.01	0.036 (≈ 0.0773 µM)	–	–
CC(C)c1ccc2c(c1)OC1(O)c3ccccc3C(=O)C21NC(=O)c1cccnc1 (stereo not drawn) [Example 230, N-(4b-Hydroxy-7-isopropyl-10-oxo-9b,10-dihydro-4bH-indeno[1,2-b]benzofuran-9b-yl)nicotinamide]	< 0.01	< 0.01	< 0.01	< 1	–
CC(C)c1ccc2c(c1)OC1(O)c3cccc(N)c3C(=O)C21NC(=O)C(=O)c1cccs1 (stereo not drawn) [Example 231, N-(1-Amino4b-hydroxy-7-isopropyl-10-oxo-9b,10-dihydro-4bH-indeno[1,2-b]benzofuran-9b-yl)-2-oxo-2-(thiophen-2-yl)acetamide]	< 0.01	< 0.01	< 0.01	–	–

≈ marks a conversion by molar mass, not a printed value. Where two headings read alike, the source gives them in different places.
